Reference: patent publication US20240307342A1, “Treatment of the adverse cardiovascular effects of cannabinoids” (GreenStone Biosciences, Inc., priority 2022, published 2024)

Tested on: human embryonic stem cell-derived cardiomyocytes (H7 hESC-CMs)
Assay: cytotoxicity in cardiomyocytes

Q: How did the cytotoxicity turn out when `CCCCCc1cc(O)c2c(c1)OC(C)(C)[C@@H]1CCC(C)=C[C@@H]21` [Δ^9-THC, (6aR,10aR)-6,6,9-trimethyl-3-pentyl-6a,7,8,10a-tetrahydro-6H-benzo[c]chromen-1-ol] was run?
A: The cytotoxicity was “without any adverse effect”.
